The other results are listed elsewhere or left out.
Legend:
Assay in all cases: glycan array binding signal (z-score within array); higher = stronger binding
Details in all cases: glycan notation: IUPAC condensed, linker removed
[1] = biological target: Neu5Ac(a2-3)Gal(b1-4)GlcNAc(b1-6)GalNAc
How it was run: (§1)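 Glycan array data were curated from 3228 arrays in the Consortium for Functional Glycomics database and kept only where the protein sequence was available. Glycan names were converted to IUPAC-condensed notation, and columns mapping to the same glycan were averaged. The binding signal is a within-array Z-score, averaged across arrays of the same protein sequence at different concentrations or buffers and across linkers. Negative Z-scores can be read as non-binding.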

[2] = biological target: Neu5Ac(a2-3)Gal(b1-4)GlcNAc(b1-6)[Gal(b1-3)]GalNAc
How it was run: as §1

[3] = biological target: Neu5Ac(a2-3)Gal(b1-4)GlcNAc(b1-6)[Neu5Ac(a2-3)Gal(b1-3)]GalNAc
How it was run: as §1

[4] = biological target: Neu5Ac(a2-3)Gal(b1-4)GlcNAc6S
How it was run: as §1

[5] = biological target: Neu5Ac(a2-3)Gal(b1-4)[Fuc(a1-3)]GlcNAc
How it was run: as §1

[6] = biological target: Neu5Ac(a2-3)Gal(b1-4)[Fuc(a1-3)]GlcNAc(b1-2)Man
How it was run: as §1

[7] = biological target: Neu5Ac(a2-3)Gal(b1-4)[Fuc(a1-3)]GlcNAc(b1-3)Gal
How it was run: as §1

[8] = biological target: Neu5Ac(a2-3)Gal(b1-4)[Fuc(a1-3)]GlcNAc(b1-3)Gal(b1-4)GlcNAc
How it was run: as §1

[9] = biological target: Neu5Ac(a2-3)Gal(b1-4)[Fuc(a1-3)]GlcNAc(b1-3)Gal(b1-4)[Fuc(a1-3)]GlcNAc(b1-3)Gal(b1-4)[Fuc(a1-3)]GlcNAc
How it was run: as §1

[10] = biological target: Neu5Ac(a2-3)Gal(b1-4)[Fuc(a1-3)]GlcNAc(b1-3)GalNAc
How it was run: as §1

[11] = biological target: Neu5Ac(a2-3)Gal(b1-4)[Fuc(a1-3)]GlcNAc(b1-6)[Gal(b1-3)]GalNAc
How it was run: as §1

[12] = biological target: Neu5Ac(a2-3)Gal(b1-4)[Fuc(a1-3)]GlcNAc(b1-6)[Neu5Ac(a2-3)Gal(b1-3)]GalNAc
How it was run: as §1

[13] = biological target: Neu5Ac(a2-3)Gal(b1-4)[Fuc(a1-3)]GlcNAc6S
How it was run: as §1

[14] = biological target: Neu5Ac(a2-3)Gal6S(b1-4)GlcNAc
How it was run: as §1

[15] = biological target: Neu5Ac(a2-3)Gal6S(b1-4)[Fuc(a1-3)]GlcNAc
How it was run: as §1

[16] = biological target: Neu5Ac(a2-3)GalNAc
How it was run: as §1

[17] = biological target: Neu5Ac(a2-3)GalNAc(b1-4)GlcNAc
How it was run: as §1

[18] = biological target: Neu5Ac(a2-3)[GalNAc(b1-4)]Gal(b1-4)Glc
How it was run: as §1

[19] = biological target: Neu5Ac(a2-3)[GalNAc(b1-4)]Gal(b1-4)GlcNAc
How it was run: as §1

[20] = biological target: Neu5Ac(a2-3)[GalNAc(b1-4)]Gal(b1-4)GlcNAc(b1-3)GalNAc
How it was run: as §1

[21] = biological target: Neu5Ac(a2-3)[Neu5Ac(a2-6)]GalNAc
How it was run: as §1

[22] = biological target: Neu5Ac(a2-6)Gal
How it was run: as §1

[23] = biological target: Neu5Ac(a2-6)Gal(b1-3)GlcNAc(b1-3)[Gal(b1-4)GlcNAc(b1-6)]Gal(b1-4)Glc
How it was run: as §1

[24] = biological target: Neu5Ac(a2-6)Gal(b1-4)Glc
How it was run: as §1

[25] = biological target: Neu5Ac(a2-6)Gal(b1-4)GlcNAc
How it was run: as §1

[26] = biological target: Neu5Ac(a2-6)Gal(b1-4)GlcNAc(b1-2)Man
How it was run: as §1

[27] = biological target: Neu5Ac(a2-6)Gal(b1-4)GlcNAc(b1-2)Man(a1-3)Man(b1-4)GlcNAc(b1-4)GlcNAc
How it was run: as §1

[28] = biological target: Neu5Ac(a2-6)Gal(b1-4)GlcNAc(b1-2)Man(a1-3)[Gal(b1-4)GlcNAc(b1-2)Man(a1-6)]Man(b1-4)GlcNAc(b1-4)GlcNAc
How it was run: as §1

[29] = biological target: Neu5Ac(a2-6)Gal(b1-4)GlcNAc(b1-2)Man(a1-3)[GlcNAc(b1-2)Man(a1-6)]Man(b1-4)GlcNAc(b1-4)GlcNAc
How it was run: as §1

[30] = biological target: Neu5Ac(a2-6)Gal(b1-4)GlcNAc(b1-2)Man(a1-3)[GlcNAc(b1-4)][Neu5Ac(a2-6)Gal(b1-4)GlcNAc(b1-2)Man(a1-6)]Man(b1-4)GlcNAc(b1-4)GlcNAc
How it was run: as §1

[31] = biological target: Neu5Ac(a2-6)Gal(b1-4)GlcNAc(b1-2)Man(a1-3)[Man(a1-6)]Man(b1-4)GlcNAc(b1-4)GlcNAc
How it was run: as §1

[32] = biological target: Neu5Ac(a2-6)Gal(b1-4)GlcNAc(b1-2)Man(a1-3)[Neu5Ac(a2-3)Gal(b1-4)GlcNAc(b1-2)Man(a1-6)]Man(b1-4)GlcNAc(b1-4)GlcNAc
How it was run: as §1

[33] = biological target: Neu5Ac(a2-6)Gal(b1-4)GlcNAc(b1-2)Man(a1-3)[Neu5Ac(a2-6)Gal(b1-4)GlcNAc(b1-2)Man(a1-6)]Man(b1-4)GlcNAc(b1-4)GlcNAc
How it was run: as §1

[34] = biological target: Neu5Ac(a2-6)Gal(b1-4)GlcNAc(b1-2)Man(a1-3)[Neu5Ac(a2-6)Gal(b1-4)GlcNAc(b1-2)Man(a1-6)]Man(b1-4)GlcNAc(b1-4)[Fuc(a1-6)]GlcNAc
How it was run: as §1

[35] = biological target: Neu5Ac(a2-6)Gal(b1-4)GlcNAc(b1-2)Man(a1-6)Man(b1-4)GlcNAc(b1-4)GlcNAc
How it was run: as §1

[36] = biological target: Neu5Ac(a2-6)Gal(b1-4)GlcNAc(b1-2)Man(a1-6)[Gal(b1-4)GlcNAc(b1-2)Man(a1-3)]Man(b1-4)GlcNAc(b1-4)GlcNAc
How it was run: as §1

[37] = biological target: Neu5Ac(a2-6)Gal(b1-4)GlcNAc(b1-2)Man(a1-6)[GlcNAc(b1-2)Man(a1-3)]Man(b1-4)GlcNAc(b1-4)GlcNAc
How it was run: as §1

[38] = biological target: Neu5Ac(a2-6)Gal(b1-4)GlcNAc(b1-2)Man(a1-6)[Man(a1-3)]Man(b1-4)GlcNAc(b1-4)GlcNAc
How it was run: as §1

[39] = biological target: Neu5Ac(a2-6)Gal(b1-4)GlcNAc(b1-2)[Neu5Ac(a2-6)Gal(b1-4)GlcNAc(b1-4)]Man(a1-3)[GlcNAc(b1-4)][Neu5Ac(a2-6)Gal(b1-4)GlcNAc(b1-2)[Neu5Ac(a2-6)Gal(b1-4)GlcNAc(b1-6)]Man(a1-6)]Man(b1-4)GlcNAc(b1-4)GlcNAc
How it was run: as §1

[40] = biological target: Neu5Ac(a2-6)Gal(b1-4)GlcNAc(b1-2)[Neu5Ac(a2-6)Gal(b1-4)GlcNAc(b1-4)]Man(a1-3)[GlcNAc(b1-4)][Neu5Ac(a2-6)Gal(b1-4)GlcNAc(b1-4)Man(a1-6)]Man(b1-4)GlcNAc(b1-4)GlcNAc
How it was run: as §1

[41] = biological target: Neu5Ac(a2-6)Gal(b1-4)GlcNAc(b1-2)[Neu5Ac(a2-6)Gal(b1-4)GlcNAc(b1-6)]Man(a1-6)[Neu5Ac(a2-6)Gal(b1-4)GlcNAc(b1-2)Man(a1-3)][GlcNAc(b1-4)]Man(b1-4)GlcNAc(b1-4)GlcNAc
How it was run: as §1

[42] = biological target: Neu5Ac(a2-6)Gal(b1-4)GlcNAc(b1-3)Gal(b1-3)GlcNAc
How it was run: as §1

[43] = biological target: Neu5Ac(a2-6)Gal(b1-4)GlcNAc(b1-3)Gal(b1-4)GlcNAc
How it was run: as §1

[44] = biological target: Neu5Ac(a2-6)Gal(b1-4)GlcNAc(b1-3)Gal(b1-4)GlcNAc(b1-2)Man(a1-3)[Neu5Ac(a2-6)Gal(b1-4)GlcNAc(b1-3)Gal(b1-4)GlcNAc(b1-2)Man(a1-6)]GalNAc
How it was run: as §1

[45] = biological target: Neu5Ac(a2-6)Gal(b1-4)GlcNAc(b1-3)Gal(b1-4)GlcNAc(b1-3)Gal(b1-4)GlcNAc
How it was run: as §1

[46] = biological target: Neu5Ac(a2-6)Gal(b1-4)GlcNAc(b1-3)Gal(b1-4)GlcNAc(b1-3)Gal(b1-4)GlcNAc(b1-2)Man(a1-3)[Neu5Ac(a2-6)Gal(b1-4)GlcNAc(b1-3)Gal(b1-4)GlcNAc(b1-3)Gal(b1-4)GlcNAc(b1-2)Man(a1-6)]GalNAc
How it was run: as §1

B1: Epa13 (Candida glabrata) (protein)
chain: MGSSHHHHHHSSGLVPRGSHMASDSSENGYAHGCSPSIRAKLKPGLSMEIYSYALRPTDDHCWDSAYLDPMFPRTGYLTHKLLGKAEGIIGPLNFLAKNPACIPAVSTLPLAFHFPKPFTITNFTMLLYGYLSPKKTGKYTFKLLADDLLLMNFGADNAFDCCSHDATKDNIGEYVAYSVWPGVNKNVTVYLESGIYYPLRLFFNNRDAIAQLDFAYYFNDSPIRQTDFSGMFFSIPDSVKCPANI
glycan array binding signal (z-score) [1]: -0.147 | glycan array binding signal (z-score) [2]: 0.015 | glycan array binding signal (z-score) [3]: -0.394 | glycan array binding signal (z-score) [4]: -0.255 | glycan array binding signal (z-score) [5]: -0.478 | glycan array binding signal (z-score) [6]: -0.233 | glycan array binding signal (z-score) [7]: -0.435 | glycan array binding signal (z-score) [8]: 0.107 | glycan array binding signal (z-score) [9]: -0.295 | glycan array binding signal (z-score) [10]: 0.426 | glycan array binding signal (z-score) [11]: 1.06 | glycan array binding signal (z-score) [12]: 0.889 | glycan array binding signal (z-score) [13]: -0.352 | glycan array binding signal (z-score) [14]: 0.078 | glycan array binding signal (z-score) [15]: -0.54 | glycan array binding signal (z-score) [16]: 0.065 | glycan array binding signal (z-score) [17]: -0.046 | glycan array binding signal (z-score) [18]: -0.377 | glycan array binding signal (z-score) [19]: -0.468 | glycan array binding signal (z-score) [20]: 0.03 | glycan array binding signal (z-score) [21]: -0.298 | glycan array binding signal (z-score) [22]: -0.413 | glycan array binding signal (z-score) [23]: -0.4 | glycan array binding signal (z-score) [24]: 0.076 | glycan array binding signal (z-score) [25]: -0.283 | glycan array binding signal (z-score) [26]: -0.062 | glycan array binding signal (z-score) [27]: -0.297 | glycan array binding signal (z-score) [28]: -0.141 | glycan array binding signal (z-score) [29]: -0.413 | glycan array binding signal (z-score) [30]: -0.507 | glycan array binding signal (z-score) [31]: -0.154 | glycan array binding signal (z-score) [32]: -0.262 | glycan array binding signal (z-score) [33]: -0.254 | glycan array binding signal (z-score) [34]: -0.441 | glycan array binding signal (z-score) [35]: -0.313 | glycan array binding signal (z-score) [36]: -0.468 | glycan array binding signal (z-score) [37]: 0.143 | glycan array binding signal (z-score) [38]: -0.292 | glycan array binding signal (z-score) [39]: -0.188 | glycan array binding signal (z-score) [40]: -0.221 | glycan array binding signal (z-score) [41]: -0.218 | glycan array binding signal (z-score) [42]: 0.146 | glycan array binding signal (z-score) [43]: -0.07 | glycan array binding signal (z-score) [44]: 0.408 | glycan array binding signal (z-score) [45]: 0.512 | glycan array binding signal (z-score) [46]: 1.1
